Data published in patent US20120058977A1, “PHARMACEUTICAL COMPOSITIONS AND METHODS FOR TREATING TUBERCULOSIS” (Rijksuniversiteit Groningen, priority 2009, published 2012).

Test system: M. smegmatis ΔipdAB
Experiment: Cell growth inhibition of M. smegmatis ΔipdAB (mineral glucose liquid medium or agar plates)
Settings: 100 and 200 mg/l HIL

Substance: 3aα-H-4α(3′-propionic acid)-5α-hydroxy-7aβ-methylhexahydro-1-indanone-δ-lactone [HIL, reference compound]
- delay of the onset of growth of ΔipdAB (liquid mineral glucose medium): approximately 48 hours
- growth inhibition of ΔipdAB in mineral glucose medium (liquid): Growth inhibition was observed
